Several values for one entry are separate records, joined by “and”; a condition that tells them apart may be missing. Identical values can stand only once. In all, about 410,000 compounds went through this assay and about 6,400 (1.6%) were called active. The inconclusive results got no clear call from the source; some entries with a clear call stand among them for comparison. Calls follow the shape of the dose curve; as a rule, active = well fitted inhibition curve with a large enough effect; inconclusive = small, poorly fitted or top-dose-only effect; inactive = no such curve, though single readings can be large or run the other way. A potency beside an inconclusive call is a rough fit, not a confirmed value.
Target: Glucagon-like peptide 1 receptor (Homo sapiens) (UniProt P43220)
Experiment: qHTS of GLP-1 Receptor Inverse Agonists (Inhibition Mode); also: nearly all actives have a fitted effect of over 55% in size
Conditions: HEK293 GLP-1R CRE-luciferase, luminescence, 24 h, GLP-1R form is constitutively active; series mostly up to 38.3 µM
Outline: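 HEK293 cells stably co-expressing constitutively active GLP-1R and a cAMP-responsive luciferase reporter were seeded in DMEM with 10% Nu serum, given compounds after 12 h, and incubated 24 h at 37 deg C. Luminescence was then read.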
Potency is read from the fitted curve at half-maximal effect; tags tell the direction and shape of the fitted curve.

UniProt P43220, sequence (P43220 whole entry, looked up): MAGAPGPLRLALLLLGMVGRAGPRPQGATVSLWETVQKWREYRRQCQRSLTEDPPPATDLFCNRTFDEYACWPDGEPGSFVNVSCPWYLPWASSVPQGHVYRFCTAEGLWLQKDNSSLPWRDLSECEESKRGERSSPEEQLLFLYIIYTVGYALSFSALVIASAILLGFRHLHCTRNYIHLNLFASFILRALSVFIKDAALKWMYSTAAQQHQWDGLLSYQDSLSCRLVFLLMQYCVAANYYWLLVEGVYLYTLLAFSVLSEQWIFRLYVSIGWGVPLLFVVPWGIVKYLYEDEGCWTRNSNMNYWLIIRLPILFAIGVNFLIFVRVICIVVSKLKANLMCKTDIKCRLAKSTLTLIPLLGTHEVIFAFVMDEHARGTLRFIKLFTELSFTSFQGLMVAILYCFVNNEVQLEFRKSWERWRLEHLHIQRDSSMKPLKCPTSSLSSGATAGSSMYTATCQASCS

Potency, inconclusive:
COc1ccc(-n2c(CCc3ccccc3)nnc2SCC(=O)NCc2ccccc2)cc1 8.91 µM [inhibitor, partial curve, poor fit]
Cc1[nH]n(-c2ccccc2)c(=O)c1N=Nc1c(O)cc(S(=O)(=O)N(C)C)c2ccccc12 2.51 µM [inhibitor, full curve, poor fit]
Cc1ccnc(Sc2ccc([N+](=O)[O-])cc2[N+](=O)[O-])n1 28.2 µM [inhibitor, single point]
COc1cccc(CN2CCN(CC(=O)Nc3ccccc3Cl)CC2)c1 14.1 µM [inhibitor, partial curve, poor fit]
CCN(CC(=O)Nc1ccc(NC(C)=O)cc1)C(=O)c1cc([N+](=O)[O-])ccc1Sc1ccc(Cl)cc1 28.2 µM [inhibitor, single point]
COc1ccc(-c2noc(CN(C(=O)c3ccc(C)cc3C)C(C)C)n2)cc1 11.2 µM [inhibitor, single point]
Cc1ccc(N(C)S(=O)(=O)c2cccc(C(=O)NCC(c3cccs3)N3CCOCC3)c2)cc1 (stereo unspecified) 28.2 µM [inhibitor, single point]
CCN(CC)S(=O)(=O)c1ccc(/C=C/C(=O)Nc2ccc(F)c(F)c2F)cc1 20 µM [inhibitor, single point]
CS(=O)(=O)N1CCN(c2ccccc2NC(=O)c2ccc3ccccc3c2)CC1 10 µM [inhibitor, partial curve, poor fit]
Cc1ccc(N(Cc2cccs2)C(=O)c2ccc(OC(C)C)cc2)cc1 10 µM [inhibitor, partial curve, poor fit]
Cc1cccc(OCCNC(=O)c2cncc(Br)c2)c1 31.6 µM [inhibitor, single point]
CC(NC(=O)c1ccc(N(C)C)cc1)c1ccc(F)cc1 (stereo unspecified) 11.2 µM [inhibitor, partial curve, poor fit]
COc1ccc(N2CCN(C(=O)Cc3csc(NC(=O)Nc4ccccc4OC)n3)CC2)cc1 10 µM [inhibitor, partial curve, poor fit]
CCn1c(SCc2ccc(Cl)cc2)nc2nc3c(cc2c1=O)CCCC3 14.1 µM [inhibitor, single point]
COc1cccc(C2c3[nH]c4ccccc4c3C[C@H]3C(=O)N(CCCCCO)CC(=O)N23)c1 (stereo partly specified) 6.31 µM [inhibitor, partial curve, poor fit]
COc1ccc(N/N=C(/N=Nc2nc(C)cc(=O)[nH]2)c2ccccc2)cc1 7.08 µM [inhibitor, partial curve, poor fit]
O=C(CN1CCN(C(=S)NC2CCCC2)CC1)Nc1ccc(Oc2ccccc2)cc1 28.2 µM [inhibitor, single point]
S=C(NN=Cc1ccccn1)N(Cc1ccccn1)Cc1ccccn1 0.501 µM [inhibitor, full curve, poor fit]
CC1(C)OC(=O)C2=C(C[C@@H](C3CCCCC3)O[C@H]2c2ccccc2)O1 14.1 µM [inhibitor, partial curve, poor fit]
Cc1nn(Cc2c(Cl)cccc2Cl)c(C)c1NC(=O)c1sc2ccccc2c1Cl 4.47 µM [inhibitor, full curve]
COC(=O)c1ccc(C2N=C(c3cccs3)CC(c3ccccc3O)N2)cc1 (stereo unspecified) 17.8 µM [inhibitor, partial curve, poor fit]
C[C@H](CO)N1C[C@H](C)[C@@H](CN(C)S(=O)(=O)c2ccc(F)cc2)Oc2ccc(NC(=O)Nc3ccc(C(F)(F)F)cc3)cc2C1=O 8.91 µM [inhibitor, partial curve, poor fit]
NC(=S)NN=C1c2ccccc2-c2cc(Br)ccc21 2 µM [inhibitor, full curve, poor fit]
O=S(=O)(Cc1cc(NCc2ccccc2)nc(-c2ccccn2)n1)c1ccccc1 10 µM [inhibitor, partial curve]
COc1ccc([C@H]2[C@@H]3C=CCC[C@@]3(C)C(=O)N2Cc2ccccc2)cc1Cl 28.2 µM [inhibitor, single point]
COCCn1c(SCc2nc3scc(-c4ccc(Cl)cc4)c3c(=O)[nH]2)nnc1-c1cccc(C)c1 11.2 µM [inhibitor, partial curve, poor fit]
CCCCCCOC(=O)C(C#N)c1nc2ccccc2nc1N1CCN(CC)CC1 (stereo unspecified) 20 µM [inhibitor, single point]
COc1ccccc1OCC(=O)NNC(=O)C1CCN(c2ncnc3sc(C)c(C)c23)CC1 14.1 µM [inhibitor, partial curve, poor fit]
COc1cc2c(cc1OC)C(COc1cc(C)cc(C)c1)N(C(=O)C(C)(C)C)CC2 (stereo unspecified) 11.2 µM [inhibitor, partial curve, poor fit]
O=C(NC1CC1)C1=C[C@@H](C2CCCCC2)C[C@@H](OCc2ccc(CO)cc2)O1 6.31 µM [inhibitor, partial curve]
Cc1ccc(NS(=O)(=O)c2ccc(-n3cccn3)cc2)c(Br)c1 14.1 µM [inhibitor, single point] and 28.2 µM [inhibitor, single point]
CC(=O)n1cc([C@@H]2C=C(C(=O)Nc3ccccc3)O[C@H](OCc3ccc(CO)cc3)C2)c2ccccc21 10 µM [inhibitor, partial curve, poor fit]
Cc1ccc(OCc2cc(C(=O)N(CCO)Cc3cccs3)no2)cc1C 3.16 µM [inhibitor, partial curve, poor fit]
COc1ccc(C(C(=O)NC2CCCC2)N(C(=O)c2snc(C(N)=O)c2N)c2cccc(O)c2)cc1 (stereo unspecified) 10 µM [inhibitor, single point]
O=C(Nc1ccccn1)c1ccc(CN(c2ccccc2)S(=O)(=O)c2ccccc2)cc1 8.91 µM [inhibitor, partial curve, poor fit]
Cc1c[nH]c2cccc(OCC(CNC(C)(C)C)OC(=O)c3ccccc3)c12 (stereo unspecified) 14.1 µM [inhibitor, partial curve, poor fit]
Nc1ccc(Sc2ccccc2Cl)nc1 28.2 µM [inhibitor, single point]
Cc1ccc2[nH]c(CN3CCN(C)C(CCO)C3)c(C)c2c1 (stereo unspecified) 7.94 µM [inhibitor, partial curve, poor fit]
CCCC(=O)Nc1sc2c(c1C#N)CCCCC2 11.2 µM [inhibitor, single point]
CC1CCN(C(=O)CN2CC(C)Sc3ccccc32)CC1 (stereo unspecified) 28.2 µM [inhibitor, single point]
Cc1ccc(NC(=O)N2CC=C(c3c[nH]c4ccccc34)CC2)cc1Cl 10 µM [inhibitor, partial curve, poor fit]
CC(=O)c1ccc(NC(=O)N2CCN(c3ccc(C)cc3)C(C)C2)cc1 (stereo unspecified) 10 µM [inhibitor, single point]
Cc1ccsc1CN(Cc1ccco1)c1cnc(S(C)(=O)=O)nc1C(=O)Nc1ccc(Cl)cc1 3.55 µM [inhibitor, full curve, poor fit]
Clc1cccc(Nc2ncnc3c2nc2n3CCCCC2)c1 11.2 µM [inhibitor, single point]
Cc1nn(C(=O)c2cccs2)c(N)c1-c1ccccc1 28.2 µM [inhibitor, single point]
COC(=O)c1cc(NS(=O)(=O)c2ccc(N3CCC(C)CC3)c([N+](=O)[O-])c2)cc(C(=O)OC)c1 11.2 µM [inhibitor, single point]

Potency, active:
O=C(CSc1nc(N2CCCCC2)nc(N2CCCCC2)n1)N1CCN(c2ccccc2)CC1 2.82 µM

Potency, inactive:
CCOc1ccccc1C(=O)Nc1cccc(-c2nc3ccccc3s2)c1
Cc1ccc(C2Nc3cccc4cccc(c34)N2)s1
Cc1ccc(C(=O)NCCc2csc(-c3cccc(F)c3)n2)cc1C
CC(C)Oc1cccc(NC(=O)C2(C)CCCN(C)C2)c1 (stereo unspecified)
CC(C)(C)n1nnnc1C(c1cccnc1)N1CCOCC1 (stereo unspecified)
CCOC(=O)c1ccc(NC(=O)CC2OCCN(CC)C2=O)cc1 (stereo unspecified)
COc1cccc(OCCSc2nc3ccccc3n2CC(=O)N2CCOCC2)c1
COc1cccc(C(=O)Nn2cnnc2)c1
COc1cccc(C(=O)N2CCn3c2nc2ccccc23)c1
COc1cc(CN(C(=O)COc2ccccc2)c2ccccn2)cc(OC)c1OC
CC(C)(C)S(=O)(=O)N1C[C@H]2C(=CC[C@@H]3C(=O)N(c4ccccc4)C(=O)[C@@H]32)[C@H]1CCO
Cc1ccc(C(c2sc3nc(-c4ccco4)nn3c2O)N2CCN(c3ccc(F)cc3)CC2)cc1 (stereo unspecified)
CCCCCCCCN1[C@@H](CC(=O)O)c2cc(C(F)(F)F)ccc2S1(=O)=O
COc1cccc(NC(=O)N(CCCN2CCOCC2)C(C)c2cc3ccccc3o2)c1 (stereo unspecified)

Reference: PubChem BioAssay AID624417 (National Center for Advancing Translational Sciences (NCATS), 2012)
